The other results are listed elsewhere or left out.
Each sequence was assayed on PfSIP2 AP2 domain 1 (GST-tagged) (assay: gcPBM binding intensity (ln(normalized median fluorescence intensity)); higher = stronger DNA binding).
How it was run: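 Each value is the highest Masliner-normalised natural-log median intensity across replicate spots of either orientation of a probe. The probes were primer-extended double-stranded 36-bp intergenic genomic sequences on an Agilent 4 × 180k array, alongside negative controls, exposed for 1 h to GST-tagged P. falciparum DNA-binding domains expressed in E. coli. Bound protein was picked up with Alexa488 anti-GST antibody and scanned at 488 nm.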

Row | Sequence | gcPBM binding intensity (ln)
1 | AAAAAAAAAAAAAAAACACACAAATCATAAATAAAT [CACACA_site478] | 7.5
2 | TGGTAGTATATCATAGAAATCATTGTATAACAAATA [XGTACX_negctrl_site569] | 6.72
3 | ATTTTTCTTTTTAATACACACAAAAGTGATACAAAC [CACACA_site3923] | 7.19
4 | TGTATTATATATACACAAATATTTATGTGTGTGTTT [XGTACX_negctrl_site475] | 7.1
5 | TTTTTTTGTATTTGTTTATTTAATGATAAAATTAAA [CACACA_negctrl_site225] | 7.23
6 | TTGTTCTATTTAAGTAGTACATACACACACATATAC [XGTACX_site8484] | 7.37
7 | ACATATATATATTCTACACACTTATAATATAATACA [CACACA_site2461] | 7.32
8 | ACTAAACTAATATGTACACACATATAACATTAATTT [CACACA_site7128] | 7.21
9 | TATATATATATATATAGTACATATTTATATATGAAA [XGTACX_site8488] | 9.32
10 | GAATTAAAATAATACGTACACACATGTATAATACAT [CACACA_site1004] | 7.1
11 | TTTCGTTCATAAAAAAGTACATATGAGCAAAAGGTA [XGTACX_site8936] | 7.46
12 | CACAATACTTTCATCACACATATATATATATATATA [CACACA_site4677] | 9.3
13 | CATCTTATATAATCATGTACATATAGAGACTTCTTT [XGTACX_site7685] | 7.01
14 | GGGGGAATTTACATGGGTACACATGTATTAAAAAAT [XGTACX_site4130] | 8.49
15 | TTTTTCTTACATGAGTGTACACACTTTTTTTCAGAA [XGTACX_site138] | 7.74
16 | TTATATGTATGGAGGTTTTTGTATATAGATATATAG [CACACA_negctrl_site177] | 6.91
17 | AATATAAACAAACACACACACATATATATATATATT [CACACA_site5592] | 7.41
18 | ATGTCATATAATAGTACACACATGAAAATATAAATA [CACACA_site3215] | 7.15
19 | AAAAAAAAAAAAAATAGTACAATACCCAAATATAAC [XGTACX_site6684] | 7.3

Row | Sequence | gcPBM binding intensity (ln)
20 | ATAAAAAAAGGACACACACACATATATTTATTTATA [CACACA_site7438] | 6.9
21 | ACTATTAAAATGAATACACACAAATATAAAAATATA [CACACA_site4145] | 7.07
22 | GGTAGGGATTATACCACACACACATACACATAAATA [CACACA_site3179] | 7.11
23 | ACGCTACATAAATACGTGCACATCTTTTTGTGTATA [GTGCAC_site9675] | 9.17
24 | ATTTATTAATATCCCAGTACTCATGGGGAATAATGA [XGTACX_site4014] | 6.92
25 | TTGTGTAAAGGTATTATTGTATTATTCAAAATAAAA [XGTACX_negctrl_site167] | 6.97
26 | AATATATAATATATATGTACTTATATATAAAAGATA [XGTACX_site7635] | 7.75
27 | TGGAGGAACCTCATATGTACGTATAAATATATATTT [XGTACX_site5603] | 7.17
28 | CATATATATTTGTTCACACACACACTAATAAAAAAA [CACACA_site8787] | 7.32
29 | TTAAAGCACCCATGCACACACACAAAGGAAAAGAAA [CACACA_site233] | 9.69
30 | TGATAAATTAAAAATTGTACTATTATAATAATATAT [XGTACX_site6615] | 6.93
31 | TTTATATAAATTTATTCACACAACTAATTTTTTAAA [CACACA_site4848] | 7.02
32 | ACAATAAACATATATACACACACAAAAAAAAAAACA [CACACA_site8033] | 7.07
33 | ATCAAATAGAGACACACACACCTAAACATAAAAGAA [CACACA_site7321] | 7.05
34 | AATATTTTATTTTGGGTGCAAAAGAATATTATTTCA | 10.4
35 | GTGTGAAACATAAACACACACAAAAAGAAAAAATAG [CACACA_site1227] | 6.91
36 | TGATATTTACAAATATTAAGATCTTATATTTTTTTT [CACACA_negctrl_site617] | 6.85
37 | AATATAAATATTAAAACACACATAAAAAGATTATTA [CACACA_site1764] | 6.8
38 | TATATATATATATTACGTACATAGAACTTTATAAAA [XGTACX_site4485] | 8.86

Row | Sequence | gcPBM binding intensity (ln)
39 | GTATATATATATATATGTACTAATTAGTAGTTTACG [XGTACX_site6274] | 7.46
40 | TATTACATAATACAAAGTACATATATTTTTTTATTT [XGTACX_site7061] | 7.02
41 | ATATTTATACATAAATGTACTTTTATATATTTAATA [XGTACX_site3020] | 6.99
42 | AATATTATAAATGATACACACTTAAAATACACGCAC [CACACA_site7305] | 7.82
43 | AGCACATATATATTATGTACATATAACTTCCCAGTG [XGTACX_site7095] | 7.05
44 | CGATACTTTAGGTGTACACAAATATACATGAATGAG [CACACA_site5189] | 7.76
45 | AAAAAAAAGGAAATAACACACATGTATTTATTTATA [CACACA_site4966] | 6.7
46 | TTATTATAAATGTTTTGTACGTACATCCGAAAATAA [XGTACX_site2175] | 7.47
47 | TATAATCATATTAAGGGTACATATGTGTAAATATTT [XGTACX_site6018] | 7.1
48 | CTTTAAAACCGGTACTGTACACATAGTATTATTATC [XGTACX_site2602] | 7.09
49 | ATAATAATAATATAACCAAGGAAATATAATATTTGT [XGTACX_negctrl_site485] | 7.01
50 | AAAAAAAAATTATTCACACATATATATATATATATA [CACACA_site5579] | 9.38
51 | GAACCATAAGGAACGACACACAAAGATAAATAAATA [CACACA_site3472] | 7.02
52 | AAAAATAAAAAAAGCACACACATATATATATATATA [CACACA_site1885] | 9.8
53 | AAATTTGCTTTTATTTTACACACTTGCTCCTGTTGT [CACACA_site8276] | 6.86
54 | ATAATATTTTAATGCACACACACAAAAAAAAAAAAA [CACACA_site2891] | 7.37
55 | AAACAATCTAAAAGTAGTACAATAAAAATATATATA [XGTACX_site5607] | 7.52
56 | TTATTGCATTGTTTTTATAAAAAAAAAAAAAAAATT [XGTACX_negctrl_site104] | 6.9

Reference: the supplement of paper PMC11417369
